About 5,000 (1.2%) of roughly 410,000 compounds were called active. Inconclusive means that the source gave no clear call. Such entries were picked first, then a sample of the others. Calls follow the shape of the dose curve; as a rule, active = well fitted inhibition curve with a large enough effect; inconclusive = small, poorly fitted or top-dose-only effect; inactive = no such curve, though single readings can be large or run the other way. Potencies beside an inconclusive call are fits to weak or partial responses and may not hold up.
assay: qHTS for Inhibitors of TGF-b; details: HepG2 CAGA-GFP TGF-b/SMAD3 reporter, GFP fluorescence, 18 h, TGF-beta stimulated, 500 pg/mL final; series mostly up to 46.1 µM; activity, negative = inhibition: at the top concentration; also: nearly all actives have a fitted effect of over 65% in size
Summary of the method: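 Cell-based qHTS in HEPG2 carrying a CAGA-GFP Smad reporter; compounds added before 500 pg/mL final TGF-beta, 18 h incubation at 37 degrees C, GFP fluorescence quantified per cell by imaging cytometry.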
% is scaled to controls: 0 for no effect and ±100 for the full control effect; potency is read from the fitted curve at half-maximal effect; tags tell the direction and shape of the fitted curve.

Compound	Potency	activity, negative = inhibition
Cc1sc2nc(CN3CCCCC3)nc(Cl)c2c1C	inconclusive: 11.2 µM [inhibitor, single point]	–
Cc1ccc(NS(=O)(=O)c2ccc(NC(=O)c3ccc(Br)o3)cc2)c(C)c1	inconclusive: 35.5 µM [inhibitor, single point]	–
Cc1ccc(S(=O)(=O)N2C[C@H]3[C@H]4C(=O)N(c5ccccc5)C(=O)[C@H]4C[C@H](OC(=O)NC4CCCC4)[C@@]3(O)C2)cc1	–	inactive: -9.78%
NC(=O)C1(N2CCCCC2)CCN(Cc2ccc(Br)cc2)CC1	inconclusive: 35.5 µM [inhibitor, single point]	–
COc1ccc(Cl)cc1NC(=O)c1cc2ccc3ccc(C)[nH]c3c2n1	inconclusive: 15.8 µM [inhibitor, single point]	–
COC(=O)C1Cc2c([nH]c3ccccc23)C2(CCN(Cc3ccccc3)CC2)N1 (stereo unspecified)	inconclusive: 35.5 µM [inhibitor, single point]	–
O=C(/C=C1\NC2(CCCC2)Cc2ccccc21)C(=O)N/N=C/c1ccccc1O	inconclusive: 5.62 µM [inhibitor, partial curve, poor fit]	–
CC(C)Nc1nc(Oc2cccc(Cl)c2Cl)cc(C(F)(F)F)n1	inconclusive: 35.5 µM [inhibitor, single point]	–
CC[C@]12c3[nH]c4cc(-c5ccco5)ccc4c3CCN1C(=O)[C@@H](CC(=O)NCCC1=CCCCC1)C[C@@H]2C(=O)N1CCN(C(=O)C2CC2)CC1	inconclusive: 28.2 µM [inhibitor, single point]	–
CC(C)(C)OC(=O)N1CCC(c2c(C(=O)N3CCN(c4ccc(Cl)cc4)CC3)cnn2-c2ccc(F)cc2F)CC1	inconclusive: 3.16 µM [inhibitor, partial curve, poor fit]	–
CC(C)C[C@H]1CN=C(Nc2ccccc2)N1CCc1ccc(F)cc1	active: 8.91 µM	–
COc1cccc2c1C(=O)c1c(O)c3c(c(O)c1C2=O)C[C@](O)(C(C)=O)C[C@H]3O[C@@H]1C[C@@H](N)[C@@H](O)[C@@H](C)O1	active: 1 µM	–
COC(=O)C1=C(C)N(CCCC(=O)O)C(=O)NC1c1ccc2c(c1)OCO2 (stereo unspecified)	inconclusive: 1.78 µM [inhibitor, full curve, poor fit]	–
Cc1cn([C@H]2C[C@H](O)[C@@H](CCC(=O)NCC3CCCO3)O2)c(=O)[nH]c1=O (stereo partly specified)	–	inactive: 6.84%
COC(=O)c1cnc(Nc2nc(C(N)Cc3ccc(Cl)cc3)cs2)nc1C(F)(F)F (stereo unspecified)	inconclusive: 35.5 µM [inhibitor, single point]	–
CC1=C(C(=O)OCC2CCCO2)C(c2ccccc2OC(C)C)C2=C(CC(c3ccco3)CC2=O)N1 (stereo unspecified)	–	inactive: -4.26%
O=C(Cc1n[nH]c(=O)c2ccccc12)OCC(=O)c1ccc2c(c1)OCCO2	inconclusive: 7.08 µM [inhibitor, partial curve, poor fit]	–
O=C(NCCc1ccccc1)c1cnn(-c2ccc(F)cc2)c1-n1cccc1	–	inactive: -7.68%
Cc1cc(/C=C/c2c(C)cnc3ccccc23)ccc1N(C)C	inconclusive: 35.5 µM [inhibitor, single point]	–
CCC1CC=CC2C1C(=O)N(Cc1ccccc1)C2c1cc(C)ccc1F (stereo unspecified)	inconclusive: 20 µM [inhibitor, single point]	–
Cc1ccc(NC(=O)CSc2nc3n[nH]c(C)c3c(=N)n2-c2cccc(C)c2)cc1	–	inactive: 0%
O=C(CN1C(=O)COc2ccc(S(=O)(=O)N3CCCCCC3)cc21)NCc1ccc(F)cc1	inconclusive: 35.5 µM [inhibitor, single point]	–

Compound	Potency	activity, negative = inhibition
COc1ccc(OC)c(S(=O)(=O)Nc2cc3c4c(c2)CC(=O)N4CCC3)c1	–	inactive: 2.18%
Cc1cc(Nc2cccc(Cl)c2)nc2ccc(NC(=O)c3cccnc3)cc12	active: 15.8 µM	–
CCOC(=O)c1cc2c(nc1N)CCCC2	–	inactive: -1.63%
Nc1c(C(=O)NCCN2CCOCC2)c2nc3ccccc3nc2n1-c1cccc(F)c1	inconclusive: 25.1 µM [inhibitor, single point]	–
Cc1onc(-c2c(Cl)cccc2Cl)c1C(=O)NCCc1ccc(S(N)(=O)=O)cc1	–	inactive: -6.46%
CCOC(=O)c1cnc2nc(SC)nn2c1N	inconclusive: 5.62 µM [inhibitor, single point]	–
CCCSCCCNC(=O)c1ccc2nc(Cc3ccccc3)oc2c1	inconclusive: 35.5 µM [inhibitor, single point]	–
CN(C)S(=O)(=O)c1cccc(-n2sc3ccccc3c2=O)c1	inconclusive: 35.5 µM [inhibitor, single point]	–
CC(C)COc1ccc(C(=O)CCN2CCCCC2)cc1	inconclusive: 22.4 µM [inhibitor, single point]	–
O=C(Nc1nccs1)c1ccc(Cl)c([N+](=O)[O-])c1	inconclusive: 11.2 µM [inhibitor, single point]	–
COc1cc(NC(=O)c2ccc([N+](=O)[O-])o2)ccc1NC(=O)c1cccs1	inconclusive: 3.16 µM [inhibitor, partial curve, poor fit]	–
CC(C)(C)NC(=O)C[C@H]1C[C@H](C(=O)N2CCOCC2)[C@@]2(C)c3[nH]c4cc(-c5ccco5)ccc4c3CCN2C1=O	inconclusive: 25.1 µM [inhibitor, single point]	–
Cc1cccc(-c2ocnc2C(=O)Nc2ccccc2NC(=O)c2ccccn2)c1	inconclusive: 11.2 µM [inhibitor, partial curve]	–
Cc1ccc(Cc2c(-c3ccc(Cl)cc3)nc3ccc(Cl)cn23)cc1	–	inactive: -5.45%
O=C(Cc1ccccc1)Nc1ccc2c(c1)OC1(CCCC1)O2	–	inactive: -0.7%
COc1ccc(CNC(=O)CN2C(=O)c3cccnc3Oc3ccc(C)cc32)cc1	inconclusive: 5.62 µM [inhibitor, single point]	–
Cc1ccc2c(Cl)cc(Cl)c(OCC(=O)N(C(C)C)C(C)C)c2n1	–	inactive: -2.98%
O=C(CCc1ccc(Oc2cc([N+](=O)[O-])cc([N+](=O)[O-])c2)cc1)N1CCCCC1	inconclusive: 14.1 µM [inhibitor, single point]	–
CCCc1cc(C(=O)Nc2cccc([N+](=O)[O-])c2)cs1	inconclusive: 14.1 µM [inhibitor, partial curve, poor fit]	–
Cc1cccc(NC(=O)C2C(c3ccccc3)C2(Cl)Cl)c1 (stereo unspecified)	inconclusive: 20 µM [inhibitor, single point]	–
Cc1cc(C)cc(Oc2nc3c(c(=O)n(C)c(=O)n3C)n2Cc2ccc(F)cc2)c1	–	inactive: -6.97%
COc1ccc(F)cc1S(=O)(=O)NCCc1sc2nc(-c3ccc(F)cc3)nn2c1C	inconclusive: 3.98 µM [inhibitor, partial curve, poor fit]	–

Compound	Potency	activity, negative = inhibition
COc1cc(OC)c2c(-c3ccccc3)cc(=O)oc2c1C(CCN1CCOCC1)c1ccc(N(C)C)cc1 (stereo unspecified)	inconclusive: 35.5 µM [inhibitor, single point]	–
CN1CCN(C(=O)Nc2cccc(-c3ccccc3)c2)CC1	–	inactive: -2.56%
O=C(Nc1cccc2cccnc12)OCc1ccccc1	inconclusive: 35.5 µM [inhibitor, single point]	–
CCc1nnc(SCC(=O)Nc2ccc(F)cc2F)c2cc3sc(C)cc3n12	–	inactive: -3.85%
Cc1c(C)c2ccc(OCC(=O)Nc3ccccc3C(N)=O)cc2oc1=O	inconclusive: 31.6 µM [inhibitor, single point]	–
CCCCNCC(O)(c1ccc(Cl)cc1)c1ccc(Cl)cc1	–	inactive: -9%
COC(=O)c1c(NC(=O)CN2CCC3(O)CCCCC3C2c2ccc(OC)cc2OC)sc(C)c1C (stereo unspecified)	inconclusive: 35.5 µM [inhibitor, single point]	–
COc1ccc(C)cc1NC(=O)C(NC(=O)c1cc(OC)c(OC)c(OC)c1)C(C)C (stereo unspecified)	–	inactive: -1.76%
COc1cc(OC)cc(N2C(=O)CSCC2=O)c1	inconclusive: 6.31 µM [inhibitor, single point]	–
Cc1ccc2c(c1)c1ccc3c(c1n2C)C(=O)C=CC3=O	inconclusive: 15.8 µM [inhibitor, single point]	–
COc1cc2oc(=O)cc(CN3CCN(c4ccccc4F)CC3)c2cc1Cl	inconclusive: 35.5 µM [inhibitor, partial curve, poor fit]	–
CCc1cc2c(SCC(=O)c3ccc(Cl)s3)ncnc2s1	inconclusive: 35.5 µM [inhibitor, single point]	–
COCCCNC(=O)c1ccc2c(c1)ncn2-c1ccccc1OC	inconclusive: 31.6 µM [inhibitor, partial curve, poor fit]	–
COCCOC1CCN(Cc2cn(Cc3ccccc3)nc2-c2cc3ccccc3o2)CC1	inconclusive: 35.5 µM [inhibitor, single point]	–
Clc1ccc(N2CCN(c3ncnc4c3nc3n4CCCC3)CC2)cc1	–	inactive: -3.25%
c1ccc2c(c1)nnn2Cn1nnc2ccccc21	–	inactive: 0.318%
CCCC(=O)Nc1nc2ccc(NC(=O)c3ccccc3F)cc2s1	–	inactive: -3.04%
O=S(=O)(Nc1cccc2c1CCCC2)c1cccc(C(F)(F)F)c1	inconclusive: 25.1 µM [inhibitor, single point]	–
CC(C)[C@H](NC(=O)c1ccccc1Cl)C(=O)OCC(=O)NCc1ccc2c(c1)OCO2	inconclusive: 8.91 µM [inhibitor, partial curve]	–
Cc1ccc(CNC(=O)c2ccc(-n3cccc3)cc2)cc1	–	inactive: -0.265%
Cc1ccc(Cl)cc1N1CCN(c2ncnc3onc(C)c23)CC1	inconclusive: 15.8 µM [inhibitor, single point]	–
COc1ccc(CNc2ccc3cn[nH]c3c2)c(OC)c1OC	inconclusive: 35.5 µM [inhibitor, single point]	–
